Data reported in the supplement of paper PMC11417369.
Some of the results follow.

What follows are sequences tested on PfHDP1 homeodomain (GST-tagged) (assay: gcPBM binding intensity (ln(normalized median fluorescence intensity)); higher = stronger DNA binding).
In short: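 The highest Masliner-normalised natural-log median intensity across replicate spots of either probe orientation is reported as binding intensity. GST-tagged P. falciparum DNA-binding domains expressed in E. coli were applied for 1 h to an Agilent 4 × 180k array of primer-extended double-stranded 36-bp intergenic genomic probes plus negative controls, and bound protein was detected with Alexa488 anti-GST antibody and scanned at 488 nm.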

Row | Sequence | gcPBM binding intensity (ln)
1 | ATGTCATAAATGTACGCACACATACATAAACATATA [CACACA_site4530] | 6.97
2 | TTCATTTTAATTTCCAGTACACATATATATACATAT [XGTACX_site558] | 6.93
3 | ATTTATTTCTATAATACACACAAATATCTTAATTAA [CACACA_site7801] | 6.3
4 | AATAAAAAAATAAAATGTACATACAAATAAATAAAT [XGTACX_site5153] | 6.66
5 | TGCAACAAAATAAACACACACACACCCCCACAAAAA [CACACA_site3388] | 8.22
6 | TATTTTAATGAAGCATTTAAGGGAAAAAAAAAAAAA [TGCATGCA_negctrl_site606] | 6.49
7 | TTATACTGTTTCAGAAAAATAAAGAATGAAAGTATT [XGTACX_negctrl_site230] | 6.82
8 | TTTTTATATTCCCCCAGTACATATATAATAGTAGTA [XGTACX_site7927] | 8.08
9 | TTAATTAAAATTTATACATGCATAAAAGAAATACAC [TGCATGCA_site537] | 7.3
10 | ATTACATGTTACTTAACACACATCTGGTGAAATAAT [CACACA_site171] | 6.53
11 | GTAATGAAACATTGCACACATATAATAATATAATAT [CACACA_site1422] | 9.86
12 | ATTTTTTTCTTTTCTTTTTTCTTTTTTTTTTTTGGT [CACACA_negctrl_site1146] | 5.87
13 | GTATACCAACATATTATACACACCTTTATATTTTTT [CACACA_site2153] | 6.73
14 | TTTAAGAGTTGCACACGTACAAAAAAAAAAAAAAAA [XGTACX_site7406] | 9.8
15 | ATAAGATGATGGAACTGTAATATATATATATATATA [CACACA_negctrl_site839] | 9.21
16 | TTGTATACATAAAATGGTACAGAATATATAATTCTA [XGTACX_site7236] | 6.27
17 | ATATATATGCATATATGTACTTAAAATATAAAGGCA [XGTACX_site3256] | 6.64
18 | TTTACGCTATAGGAGAGTACTTATAAAATCCTGTGT [XGTACX_site2364] | 6.29
19 | TTCATATATTTTAAAGCATGCATTCATCTTATAGTT [TGCATGCA_site800] | 6.44
20 | AGACGAAAATAATAAAGTACTAAAAAAAAAAAAAAA [XGTACX_site927] | 6.34
21 | TACAAAATATATATGACACACACAAAAAAAGTATAT [CACACA_site8455] | 6.83
22 | TATTTTTCCATTGGGGGTACATGTGTTATATTTATT [XGTACX_site5914] | 8.68

Row | Sequence | gcPBM binding intensity (ln)
23 | TACCTAAATAAATGGACACACACATATATATATATA [CACACA_site8407] | 9.32
24 | TTATAGCCTGTGAAGAGTACATTTTTATTTTTTATT [XGTACX_site4105] | 6.23
25 | AAGTAATACAACACGCACATATATATATATATATAT [GTGCAC_negctrl_site89] | 9.41
26 | TATTTTTAAATATAAAGTACTTATATTAACTACGAA [XGTACX_site1524] | 6.21
27 | ATTTTTTCTGTCTTAATTGGACCCACTGCAAATGGG [CACACA_negctrl_site1158] | 6.22
28 | TTGTTAATAAATAAATAAATAAATATATTTATATAT [GTGCAC_negctrl_site271] | 6.01
29 | TTAATTATTATATAAGTGCAATAATAAAAAGTTGTA [GTGCAC_site9552] | 9.36
30 | TGATTTTTTCATATTCTACACACGTGAACAAATGTG [CACACA_site8987] | 6.4
31 | AAAAAAAAAAAACACACACACACACCCATACATACA [CACACA_site707] | 6.78
32 | AGACAAAATGTTTGAAGTACTTTTTATCAAATTAAA [XGTACX_site8885] | 6
33 | TTATCAATAAAATGCACACACTGTAATATTATTAAA [CACACA_site6055] | 10.2
34 | ATTTAAAACAAAAGTAGTACGTCTAATAAATTCAAC [XGTACX_site4344] | 6
35 | ATATATATTTATATTTGTACGAATTAAAATTTTTTA [XGTACX_site5200] | 6.42
36 | ATAGCTTTTATTTAAAGTACAAAAAGGATGTTGAAA [XGTACX_site3810] | 6.23
37 | TATATGTATGTATGTACACACAAAAAATGGAATATA [CACACA_site3717] | 7.19
38 | AGGGAATAAGTAAGGTGTACATAATTATGTTACTTT [XGTACX_site6152] | 6.67
39 | TTTTTTTATTTTATAAAGCAAAAATAAGAATGAAAT [XGTACX_negctrl_site270] | 6.69
40 | TTAAGAATATCTTAGAGTACATTTTATCATCTTAAA [XGTACX_site8298] | 5.75
41 | TTTTTTTTTTTTAATTGTACATTTTATATAAACTTT [XGTACX_site6806] | 6.17
42 | AATTTATTTTTTTAATGTACATATGGTATAAATATA [XGTACX_site8012] | 6.58
43 | TGTTGATTTCTCAAATGTACTTTACTTTTCTTCAGA [XGTACX_site7916] | 5.96
44 | AATATATATATATGTACACACTCCAATACATATACA [CACACA_site2682] | 6.64
